172 sequences from publication PMC10668032 can be followed below.

This is one part of the list. At the low end of the ranking the order means little.

This test has as its target SIX1 homeodomain (reference allele) (UniProt Q15475). The test can be described thus: universal protein binding microarray. Particulars: Universal all-10-mer PBM (8x60K, AMADID 030236), 300 nM GST-tagged protein, Alexa Fluor 488 anti-GST; buffer, salt, pH and temperature not stated; high values mean tight binding; most listed sequences are background and not binding sites; double strand, one strand shown.
AGAAGTTC: the binding signal is -0.277 E-score.
Then ATTCGATG, with -0.146 E-score; and AGCATTAA, with -0.176 E-score; and TCAGACAA, with -0.107 E-score.
Turning to AATCACCG, the binding signal was -0.152 E-score.
For GGCTACGA, the binding signal was determined as 0.0415 E-score.
In the case of CTGTTCAA, the binding signal was -0.197 E-score.
Consider AAATTCAA, for which the binding signal was -0.209 E-score.
For the sequence CGTATCTA, the binding signal turned out to be 0.349 E-score.
On to CCAAAAGG, for which the binding signal was -0.208 E-score.
Then ACGGAAAT, with -0.218 E-score; and TAGCTAAA, with -0.0454 E-score; and TTAGACAA, with -0.0367 E-score.
With GAGCGCGA, the binding signal is -0.0356 E-score.
Consider AAGCTCAA, for which the binding signal is -0.257 E-score.
For the sequence GAGTTAAC, the binding signal was -0.106 E-score.
Take GAGAACGA: the binding signal was -0.0402 E-score.
With CCTGTCCG the figure was -0.0832 E-score.
With GTGGCCCA the figure was -0.217 E-score.
Consider CATGGACG, for which the binding signal worked out at 0.0317 E-score.
In the case of TAATGCGA, the binding signal is -0.0292 E-score.
Regarding AGCGATAT, the binding signal came to 0.42 E-score.
On to CGAACTTA, for which the binding signal was -0.304 E-score.
On to CGTTGAGA, for which the binding signal came to 0.0607 E-score.
With AAAACGAG the figure was -0.181 E-score; with CTATGAAA, 0.0478 E-score.
With AATATTCG the figure was -0.0172 E-score; with GCCAGCCA, -0.226 E-score; with CGCGAGCG, -0.204 E-score.
For CTGCATTC, the binding signal is -0.216 E-score.
ACCAGCCG: the binding signal is -0.0904 E-score.
On to ACATGCCC, for which the binding signal came out at 0.029 E-score.
As to CCCGCCCG, the binding signal stood at 0.123 E-score.
In the case of AGCGGCCT, the binding signal is -0.258 E-score.
As for GATTTAAC, the binding signal was -0.22 E-score.
With CGTCTGTC the figure was 0.0124 E-score.
With CACGGACG, the binding signal is -0.0547 E-score.
Regarding GATGCCCA, the binding signal came to 0.145 E-score.
With CTTTATCA the figure was -0.0954 E-score.
Regarding GCCAACGC, the binding signal was -0.144 E-score.
On to GTGTGCTA, for which the binding signal was 0.0518 E-score.
On to AGGCAACA, for which the binding signal is -0.101 E-score.
In the case of ATTAACAG, the binding signal was -0.068 E-score.
With CTAACGCC, the binding signal is -0.154 E-score.
As to CAGCGGGA, the binding signal was -0.00724 E-score.
With TCTGGGAA, the binding signal was -0.191 E-score.
Take ACTACCAA: the binding signal is -0.101 E-score.
Then ACAAATCT, with -0.259 E-score; and GGACAGTA, with 0.00783 E-score.
As for GCCTGTTA, the binding signal was -0.0126 E-score.
As to CTTGGGCA, the binding signal turned out to be 0.0194 E-score.
For the sequence AATCCGTG, the binding signal turned out to be 0.195 E-score.
For the sequence TCTGGTCA, the binding signal was -0.13 E-score.
In the case of ATTCACTG, the binding signal was -0.3 E-score.
With CATCAGGG the figure was -0.0117 E-score; with GAAAACTA, -0.00681 E-score.
Take AAAAATTA: the binding signal is -0.186 E-score.
Regarding GGGCCGAC, the binding signal is -0.0964 E-score.
Take TAATCTGA: the binding signal worked out at 0.131 E-score.
Then AAACAGGC, with -0.284 E-score; and AATAGATG, with 0.101 E-score.
Then CCTCAAGA, with -0.179 E-score.
Then CACTGGGA, with -0.105 E-score.
AGTTTTGG: the binding signal was -0.0742 E-score.
Regarding GCCTTCTA, the binding signal is 0.0386 E-score.
Take CAGTTAGA: the binding signal is -0.112 E-score.
With AGTGCTTG, the binding signal was -0.056 E-score.
With AATATTTG, the binding signal was -0.263 E-score.
Regarding AGGGATCA, the binding signal is 0.449 E-score.
Regarding ATGACCAT, the binding signal was -0.0591 E-score.
For CCGGGCAA, the binding signal stood at 0.0047 E-score.
Turning to CCCTCCAC, the binding signal was -0.101 E-score.
CGGTGGTC: the binding signal was -0.0322 E-score.
Consider CGTTCGAG, for which the binding signal was -0.102 E-score.
With GTACGTAA the figure was -0.106 E-score.
For the sequence GTATACTA, the binding signal worked out at 0.344 E-score.
Take GTCTCGAA: the binding signal worked out at 0.0087 E-score.
With CTTGTCTC, the binding signal was -0.116 E-score.
With ATCAATTA, the binding signal turned out to be 0.229 E-score.
As for ACAGCTAA, the binding signal is -0.131 E-score.
As for ACGCAGAG, the binding signal was -0.123 E-score.
As for CCTGGCCA, the binding signal was -0.181 E-score.
ACAAGAGT: the binding signal was -0.187 E-score.
With GGTCGCAC, the binding signal is -0.21 E-score.
Regarding AGACACAG, the binding signal stood at 0.0101 E-score.
Take CCTACGCC: the binding signal worked out at 0.102 E-score.
On to CAGGAAGG, for which the binding signal is -0.234 E-score.
Then GACGCAAA, with -0.165 E-score; and AAAGCTCG, with -0.168 E-score.
Turning to GCAGCTTA, the binding signal was -0.0421 E-score.
Regarding AGTAAAAG, the binding signal is 0.0311 E-score.
CAGCCATA: the binding signal stood at 0.069 E-score.
For AACCCCAG, the binding signal is 0.0943 E-score.
With AAGCGATT the figure was 0.0751 E-score; with TGTCCCAA, -0.112 E-score; with ACATAACC, -0.0915 E-score.
For AACGAGAT, the binding signal turned out to be 0.1 E-score.
Regarding CAGACAAG, the binding signal is -0.12 E-score.
Then CAGGGAGG, with -0.117 E-score.
Then ATGAAGGG, with 0.065 E-score; and GAGTACGC, with -0.0824 E-score.
As for TAGATTCA, the binding signal was -0.186 E-score.
Regarding CAAGGTAC, the binding signal is -0.208 E-score.
With ATCGTTCG, the binding signal amounted to 0.27 E-score.
With GCAATAAC the figure was -0.0289 E-score.
For the sequence GCAGCGAC, the binding signal was -0.0365 E-score.
Regarding AAACTCTC, the binding signal is -0.15 E-score.
In the case of AACCGAAA, the binding signal was -0.149 E-score.
As for CTTCGGCA, the binding signal was -0.12 E-score.
As for CGAGTTAC, the binding signal is -0.0443 E-score.
Regarding ACGGGGGC, the binding signal was -0.0511 E-score.
In the case of GTGAATGA, the binding signal is -0.13 E-score.
With ATCATTAC the figure was 0.295 E-score.
In the case of CGTCTCAG, the binding signal was 0.161 E-score.
With CCTGACCG, the binding signal is -0.0564 E-score.
Take AACTGACG: the binding signal is -0.352 E-score.
Consider GACCATAA, for which the binding signal is -0.063 E-score.
With CGTCTTTC, the binding signal is -0.252 E-score.
With CCCGACTA the figure was 0.0848 E-score.
Take CGCCTTTC: the binding signal was -0.253 E-score.
As for ATGGCACG, the binding signal was -0.0871 E-score.
As for ACCCGAAG, the binding signal came to 0.124 E-score.
With CAGATACC the figure was 0.433 E-score; with ACGAAAGG, -0.087 E-score.
Take ACATGTCC: the binding signal was -0.0849 E-score.
With CCATTCGA the figure was -0.129 E-score; with CGGTGCAG, -0.148 E-score.
As to CCTATGAC, the binding signal was -0.065 E-score.
For CTCCGGAG, the binding signal is -0.064 E-score.
For ACAACCTC, the binding signal is -0.242 E-score.
Regarding ATATAGCA, the binding signal was 0.248 E-score.
Take ACGGAGGC: the binding signal was -0.127 E-score.
Take AAACCTTA: the binding signal is 0.0446 E-score.
For CAACTGAG, the binding signal was found to be 0.0954 E-score.
For CCTCAATC, the binding signal is -0.0694 E-score.
Regarding ACCCGACA, the binding signal worked out at 0.239 E-score.
With AGCTAAAT the figure was -0.123 E-score; with ATCGCCAA, 0.119 E-score.
Regarding ATCAAAGG, the binding signal worked out at 0.0975 E-score.
Consider GTTATTTA, for which the binding signal is -0.0939 E-score.
Then CAGTTCGC, with -0.268 E-score; and CATATCGA, with 0.417 E-score.
With GACGTCGC the figure was -0.189 E-score; with AACGCCTG, -0.123 E-score; with GTCTCTTA, -0.134 E-score.
Then CCGGCAGC, with -0.0391 E-score; and AATACACT, with 0.0246 E-score; and CTGAAAGA, with -0.194 E-score.
For the sequence ATTTAAAA, the binding signal was -0.139 E-score.
On to GACCTTAC, for which the binding signal was -0.199 E-score.
With AAGTCTCA, the binding signal is -0.0142 E-score.
For the sequence AATTGTTC, the binding signal is -0.119 E-score.
With TAGGGGCA the figure was 0.141 E-score; with CACAGGCC, -0.194 E-score; with ATCTGCTA, 0.215 E-score.
With AAATCGCC the figure was -0.222 E-score; with GGATGTAC, -0.0609 E-score; with CTTTGCCC, -0.254 E-score.
With ACTCGACG, the binding signal was found to be 0.0124 E-score.
GAAGAAAA: the binding signal is -0.296 E-score.
With CGGCAATC the figure was -0.049 E-score; with CAAAGTTG, -0.121 E-score.
With GTTCGCTA the figure was -0.101 E-score; with CACGTGAC, -0.0444 E-score.
As for AAGTGATT, the binding signal is -0.121 E-score.
As for TCGCGTAA, the binding signal is -0.152 E-score.
With TGTTTAAA, the binding signal was -0.2 E-score.
Then AGCATACT, with -0.157 E-score; and ATCAGCAG, with 0.124 E-score; and GATCCTTA, with 0.342 E-score.
On to AACAAACA, for which the binding signal is -0.0485 E-score.
In the case of AGTCGGCA, the binding signal was -0.0962 E-score.
